Data: the supplement of paper PMC11417369
This is one part of the list.

tested on: PfSIP2 AP2 domain 1 (GST-tagged); assay: gcPBM binding intensity (ln(normalized median fluorescence intensity)); higher = stronger DNA binding
Outline: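 GST-tagged P. falciparum DNA-binding domains, expressed in E. coli (about 25 μg on average), were applied for 1 h to an Agilent 4 × 180k array of primer-extended double-stranded 36-bp intergenic genomic probes plus negative controls. The binding buffer was 1× PBS with 1% milk, 0.2 mg/ml BSA, 0.5% salmon testes DNA and 0.03% Triton X-100. Bound protein was detected with Alexa488 anti-GST antibody and scanned at 488 nm. Binding intensity is the highest Masliner-normalised natural-log median intensity across replicate spots of either probe orientation.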

Row | Sequence | gcPBM binding intensity (ln)
1 | ATACGAAGTACGTACACACACTTATATGTTACTAAA [CACACA_site7812] | 7.14
2 | TATATATGCATTAAATGATGTTCCTGTTTTTTAAAA [CACACA_negctrl_site1378] | 7.02
3 | TTTATATCATTTCTTAAAAAAAAGGAGGTAATAGAC [TGCATGCA_negctrl_site555] | 8.44
4 | AATAAATAAATATATACACACATATATGTCTACATA [CACACA_site3158] | 7.02
5 | TTGCATTACGAACATACACACAGAATAACTGAAAAC [CACACA_site3025] | 7.25
6 | TTCGATGAATATACAAGTACATATCCTTACGAACTG [XGTACX_site1650] | 6.93
7 | ATATATATATATATATATATATATATATATTATATA [XGTACX_negctrl_site48] | 9.63
8 | AAATAATATATTCTATATAATAAATTATAAATATAA [GTGCAC_negctrl_site558] | 6.58
9 | ATATGACTGTTCATTTGTACGTATAATTATATACGT [XGTACX_site3372] | 7.09
10 | ATACAACTAATAAGTAGTACAATATACATATATTAT [XGTACX_site7086] | 7.02
11 | TTTTTTTTTTTTTTTTATTTATATATATATATATAT [CACACA_negctrl_site582] | 9.19
12 | AAAAAAAATGAAAGGTGTACACATACAAACATAGAA [XGTACX_site3517] | 7.31
13 | AAATATTTTTAGAGTGCATGTAATAAAAATATAATG [TGCATGCA_site19] | 10.1
14 | TTAATTATATCAGGACGTACTAATATAAATATATAT [XGTACX_site8909] | 6.99
15 | GGGATATATTATTATACACACATATATAAAAGCTTT [CACACA_site2445] | 7.09
16 | AAATGAGATATAAAATGTACATATTGTAAGTAAACA [XGTACX_site1237] | 7.09
17 | GTGCAAAATATTTTTACACACAAATTTTTACAACAG [CACACA_site3357] | 9.32
18 | AAAAATAAATAAGACACACACAAAAAAAAAAAAAAA [CACACA_site1432] | 6.82
19 | AAGATCGCATGAAATGAACACACATAAAAAAAATAT [CACACA_site9353] | 7.05
20 | TAAAAAATTATATTCACACACATACCCATATATATA [CACACA_site4458] | 7.4
21 | AATGTAACAACTTTTTGTACTTAAGAAATAATAAAT [XGTACX_site3310] | 6.84
22 | TAAAATTTATAAACTACACACATATATATAGTAATA [CACACA_site3728] | 6.82

Row | Sequence | gcPBM binding intensity (ln)
23 | TAATTTAGATATATAAAGAATTAAAGTTAACATTCT [CACACA_negctrl_site726] | 6.71
24 | TTTTTCAGATCCTATATAGTATCATATAAATTCCAT [CACACA_negctrl_site56] | 6.87
25 | TTAAGAAAAAAAAAAAGTACACACATATAATATATA [XGTACX_site6268] | 7.27
26 | ATATATATATAATAAAGTACAAATTCTAAATGATAT [XGTACX_site570] | 8.92
27 | TATCTTATGTCTGAAAGTACAAATTTTTTTCTACTT [XGTACX_site2208] | 6.82
28 | ATTATCTATCGTTTTTGTACTTACACCTTAATACAA [XGTACX_site7337] | 7.4
29 | ACTACGAATGGTAGAGTGCAGTCTGGAGAAAAGTAC [GTGCAC_site9681] | 9.11
30 | CTTTTTTTTTTTTTTGCGCACTGTTTAAAGGGAAAT [GTGCAC_site9815] | 9.19
31 | TATGAATATCTATACACACACATATATATACTCACT [CACACA_site1597] | 7.11
32 | CAAAGATATATAAACACACAAATATAACATATATAC [CACACA_site7395] | 6.91
33 | TATATTATTATATATTGTACTTTTTATATTTGCATT [XGTACX_site2978] | 6.95
34 | TATGTATATTTTTTTGTGCACATATATATATATATA | 9.54
35 | TTTCTTATATAAGTGTACTAAAATATATATATGCAA [GTGCAC_negctrl_site546] | 7.24
36 | ATTTTTTTTTTAAAATGTACATGAGAAATTGTATAT [XGTACX_site425] | 7.26
37 | TATATTATTAATTAAGCACACATTATTTTTATAATA [CACACA_site3982] | 6.89
38 | TAACATAATATAGACACACACATGTACATATGCCAA [CACACA_site1842] | 7.04
39 | TAAAAAAATAAATATACACACATATATAAATATGTA [CACACA_site6641] | 6.78
40 | TACTATATCGATACCAGTACAGATTTATAAATAATA [XGTACX_site7491] | 6.94
41 | AAATATAATAATAATTTAAGAATCTAATATTTTATA [CACACA_negctrl_site831] | 6.59
42 | TATATTAAGTATAAGACACACATATAGTAATAGAAA [CACACA_site5176] | 6.83
43 | TTATAAAAAAAAATAACACACAGACATAAGAATAAA [CACACA_site9383] | 7.04
44 | AAGTGTCAAAGTTACACACACAAACTTGTCATTTTT [CACACA_site837] | 6.66

Row | Sequence | gcPBM binding intensity (ln)
45 | ATATAACTTTTCTTAACACACAAAAAACAAAAATAA [CACACA_site2380] | 7.24
46 | GGTATACATATTAAATGTACATATTTTAACAATAAG [XGTACX_site4868] | 7.1
47 | ATATAATTATATAAATGTACTCATTCGTTATTTTGC [XGTACX_site6132] | 6.99
48 | TTATTCAGAAAAAAAAAAAAAAAAAAAAAAAAAAAA [CACACA_negctrl_site1662] | 7.12
49 | TATATATATGTGCAGTGTACTTTTTTTTTCTGTAAG [XGTACX_site3424] | 7.79
50 | ATATGTAAAGAAAAGTAAACACTAATTTTAAACAAT [CACACA_negctrl_site11] | 6.88
51 | TTTTTTTTAATTGTGATACGTATATTATTTTTTGAT [TGCATGCA_negctrl_site318] | 6.99
52 | ATTTTTAATATTATTACACACACTAATAAAAAAAAA [CACACA_site8265] | 7.05
53 | GAGAAGACATTACACAGTACCCAGGAAATCTACGGA [XGTACX_site1993] | 7.1
54 | ATATATATATATATATGTACTTAATATTTCTTATTT [XGTACX_site6206] | 9.42
55 | TCGACAAATGTATATACACACATTTGTAACATAAAT [CACACA_site560] | 6.84
56 | TATAAAGGTGAAATTTGTACATAGTCATTTTTTAAT [XGTACX_site4811] | 6.86
57 | TGATTAAAAGAGGGAAAAAAAAAAAAAAAAAAAAAA [CACACA_negctrl_site896] | 7.12
58 | TGACGAAAAAAAAGGGTGCTTAGTATAACTTTAAAG | 8.7
59 | TTCTTTTTTAAACACACACACACAAGAAAATATATA [CACACA_site5680] | 7.49
60 | GACTTTTCATTTATAGTGCAAGTTTTTTTTTTTTTT [GTGCAC_site9698] | 8.38
61 | ATAAATATAAAAAAATGTACATATAGTAATACATAC [XGTACX_site508] | 7.2
62 | GAAATAAAAAGAAATGCATGTAATTTTTTTTTTTTT [TGCATGCA_site928] | 6.71
63 | ATAAGTATAAGAATCAGTACACAGTTTCTACATACT [XGTACX_site5834] | 6.83
64 | TATATATCATTTAAAACACACAAAAAAAAAAGTTAT [CACACA_site6191] | 6.93
65 | ATTAAAACCAATTAAAAAAAATTTATAATGGAAGCA [TGCATGCA_negctrl_site273] | 6.77
66 | TATTATTGTTGTTCATGTACACACTATAATAAAAGC [XGTACX_site8957] | 7.29

Row | Sequence | gcPBM binding intensity (ln)
67 | GAGATAAAATAAAACACACACATATATATATATAAT [CACACA_site5246] | 7.26
68 | AATGACTAAATTTAAACACACAAGGGGAGTTTACTT [CACACA_site918] | 6.69
69 | TTGTATTTTTAAATGACACACACATATATATATATA [CACACA_site8481] | 9.19
70 | AATAAATAAGCACATACACACATACATACATACATA [CACACA_site6075] | 7.12
71 | AAGTTATAAAAATAAAGTACAAAGTAGCTATTTTTT [XGTACX_site3144] | 6.84
72 | TAGGCGTTTAATAAAAGTACCCACACATATATTATT [XGTACX_site1932] | 7
73 | TTTATTATCGTTCTCATACACACAAAATATACATAC [CACACA_site2642] | 7.33
74 | ATTTAACAACTTCAAACACACAATATATATATATAT [CACACA_site2093] | 9.46
75 | AATTCAAATATAAATACACACACATAGCTACAAAAT [CACACA_site9386] | 7.04
76 | AAATATATATGTGGGGGTACTAATAAAAAAACCCCT [XGTACX_site2657] | 7.07
77 | CATAAATTAATAGTCACACACGTATTTTTTATATAT [CACACA_site2526] | 6.95
78 | TTACACAAACAAATTATGGACACATAAGTAAAAGGA [CACACA_negctrl_site1622] | 7.27
79 | TGAAAAAAAAAAAAAAAAAAAAGAAAAAAAAAAAAA [CACACA_negctrl_site709] | 6.59
80 | GAAAAAAGAAAAAAAAGTACATATATTTAATAAGAC [XGTACX_site6912] | 7.43
81 | TTATCCATAAAAAAGTGTACGCACTAAAATTGAAAA [XGTACX_site5460] | 7.92
82 | TATAATTCATATGAAACACACATTTATTTTAATTAC [CACACA_site3686] | 6.93
83 | GTTATTTATAGACACACACACATGCATGCACATATA [CACACA_site6204] | 9.23
84 | CATATGTTCATCATAGCACACATATATAAATTACAA [CACACA_site9177] | 7.03
85 | CACACCCACAGACACACACACACATATATATATATA [CACACA_site363] | 9.36
86 | ATATATATATATATTTGTACATATATACATAAAATT [XGTACX_site359] | 9.23
87 | GAAAAAGTTATAAATTGTACTAAATATTAAATATTG [XGTACX_site7890] | 6.77
88 | TTTAAAATGGGACTTTGAAAAAAAAAAAAAAAAACA [TGCATGCA_negctrl_site111] | 6.8
